# Data: article PMC4336329 (PLoS ONE, 2015)
# Screen size: about 310,000 compounds; about 2,200 (0.71%) showed an effect of 50% or more. Effects have a minus sign here. The list shows a part of the results.
# Molecular target: human ether-à-go-go-related gene (hERG) potassium channel (human, UniProt Q12809)
# Test: primary screen, population patch clamp on CHO cells stably expressing hERG
# Chain of human ether-à-go-go-related gene (hERG) potassium channel (Q12809 whole entry, looked up): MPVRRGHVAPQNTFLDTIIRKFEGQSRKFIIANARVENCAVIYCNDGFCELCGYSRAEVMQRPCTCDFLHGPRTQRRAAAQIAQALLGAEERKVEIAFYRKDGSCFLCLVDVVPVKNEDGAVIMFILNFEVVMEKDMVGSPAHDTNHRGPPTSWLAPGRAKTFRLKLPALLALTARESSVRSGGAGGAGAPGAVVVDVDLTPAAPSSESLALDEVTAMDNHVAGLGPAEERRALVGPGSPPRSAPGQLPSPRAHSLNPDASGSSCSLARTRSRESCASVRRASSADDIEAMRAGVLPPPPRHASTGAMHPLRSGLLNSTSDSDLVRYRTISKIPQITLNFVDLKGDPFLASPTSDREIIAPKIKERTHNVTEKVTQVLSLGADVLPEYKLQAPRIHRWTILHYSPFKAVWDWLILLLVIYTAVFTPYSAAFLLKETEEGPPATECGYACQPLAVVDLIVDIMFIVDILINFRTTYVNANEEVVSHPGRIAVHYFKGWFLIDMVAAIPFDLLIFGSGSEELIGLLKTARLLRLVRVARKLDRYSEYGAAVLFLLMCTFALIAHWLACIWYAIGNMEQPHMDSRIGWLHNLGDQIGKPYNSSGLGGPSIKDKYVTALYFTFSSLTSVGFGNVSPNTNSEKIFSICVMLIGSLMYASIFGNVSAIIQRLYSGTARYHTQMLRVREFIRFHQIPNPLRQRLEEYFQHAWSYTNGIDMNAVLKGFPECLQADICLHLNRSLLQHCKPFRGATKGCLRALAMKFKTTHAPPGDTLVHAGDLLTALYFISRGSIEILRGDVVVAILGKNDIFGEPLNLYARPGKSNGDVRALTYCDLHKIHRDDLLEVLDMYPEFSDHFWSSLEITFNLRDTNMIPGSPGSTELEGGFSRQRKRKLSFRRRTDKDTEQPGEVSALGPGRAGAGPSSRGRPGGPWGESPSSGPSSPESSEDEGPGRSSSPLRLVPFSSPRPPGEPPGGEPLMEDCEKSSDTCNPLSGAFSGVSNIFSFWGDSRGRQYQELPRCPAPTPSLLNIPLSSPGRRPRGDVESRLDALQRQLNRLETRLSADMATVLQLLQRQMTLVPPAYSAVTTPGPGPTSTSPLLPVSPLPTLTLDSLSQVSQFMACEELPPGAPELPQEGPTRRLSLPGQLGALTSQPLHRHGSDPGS
row,Structure (SMILES),"hERG current change (%, negative = inhibition) at 1uM"
1,CCn1cc(CCC(=O)O)c(C)n1,8.81%
2,CN(Cc1ccccc1)C(=O)c1ccccc1NC(=O)c1ccco1,17.5%
3,Cc1cc(=O)oc2cc(OCC3CC(c4ccccc4Cl)=NO3)ccc12 (stereo not drawn),-1.89%
4,C/C(=N\Nc1ccc(Cl)cc1)c1ccncc1.Cl,5.64%
5,CCc1cc2c(=O)c(-n3cnc4ccccc43)coc2cc1O,-1.87%
6,O=C(CCC(=O)N1CCN(c2ccccc2F)CC1)N1CCN(c2ccc(F)cc2)CC1,-21.2%
7,C=C(C)CSc1nc2ccccc2[nH]1,11.4%
8,CCOc1ccc(OCCn2c(=S)[nH]c3ccccc32)cc1,17.8%
9,COc1cc(S(=O)(=O)N(C)C)ccc1F,26%
10,CCCCN(Cc1ccco1)C(=O)Cn1ncc2c(=O)oc3ccc(C)cc3c21,12.7%
11,CC1CCN(CC(=O)Nc2ccc(C(=O)N3CCCCC3)cc2)CC1.O=C(O)C(=O)O,11.3%
12,CC12CCC(=O)N1C(C(=O)OCC(=O)Nc1ccc(C(F)(F)F)cc1)CS2 (stereo not drawn),7.73%
13,O=C(O)c1ccccc1C(=O)c1ccc(N2CCCC2)c([N+](=O)[O-])c1,14.3%
14,O=C(Cc1ccccc1)N1CCN(C(=O)c2cccs2)CC1,4.21%
15,Cc1cc2c(cc1C)C(c1ccsc1)CC(=O)N2 (stereo not drawn),9.06%
16,CCOC(=O)C1(CCc2ccccc2)CCN(C(=O)CN2CCOC2=O)CC1,13.2%
17,COc1ccc(C)cc1N(C)C(=O)c1coc(=O)c2ccccc12,11.5%
18,COc1ccc(NC(=O)c2cc(-c3cccs3)on2)cc1,12.7%
19,O=C(CC1C(=O)NCCN1C(=O)c1ccc(F)cc1)OCc1ccccc1 (stereo not drawn),10.1%
20,CCOC(=O)C(Sc1ncn[nH]1)c1ccccc1 (stereo not drawn),4.36%
21,CCN1C(=O)[C@H]2[C@@H](c3ccc(OC)cc3)N3C(=O)CN(Cc4ccccc4)C(=O)[C@@]3(C)[C@H]2C1=O,13.6%
22,CCOC(=O)C(C(C)=O)c1c(Br)c(O)c(O)c2c(C(=O)c3ccc(C)cc3)coc12 (stereo not drawn),5.34%

row,Structure (SMILES),"hERG current change (%, negative = inhibition) at 1uM"
1,O=C(CC(Sc1ccc(Br)cc1)C(=O)O)c1ccc(F)cc1 (stereo not drawn),15.8%
2,CCc1nc(C)ccc1OCC(=O)N(CC)CC.O.O=C(O)C(=O)O,-8.43%
3,CCOc1ccc2nc(-c3cc(NC(C)=O)ccc3O)sc2c1,17.8%
4,CN(C)C(CNC(=O)CN1C(=O)NC2(CCCC2)C1=O)c1ccccc1 (stereo not drawn),3.06%
5,Cc1cccc([C@@H]2[C@@H]3C(=O)N(Cc4ccccc4)C(=O)[C@@H]3[C@]3(CC(C)C)C(=O)N(c4cccc(F)c4)C(=O)N23)c1,8%
6,O=C(Nc1ccc(Cl)c(S(=O)(=O)N2CCCCC2)c1)c1cccnc1,2.84%
7,CCOC(=O)c1cc2c(=O)n3ccccc3nc2n(CCCOC)c1=NC(=O)C(C)(C)C,8.87%
8,N#CC1=C(c2ccc(-c3ccccc3)cc2)COC1=O,5.25%
9,CCN(CC)S(=O)(=O)c1cc(C(=O)OCC(=O)NC2CCCc3ccccc32)ccc1C (stereo not drawn),-9%
10,COC(=O)CN(c1nc(C)c(Br)c(OC)n1)S(=O)(=O)c1ccccc1,13.6%
11,Cc1c(CCO)c(=O)[nH]n1S(=O)(=O)c1ccc(Cl)cc1Cl,-0.58%
12,CCCNC(=O)CN1C(=O)NC(CCc2ccccc2)C1=O (stereo not drawn),19%
13,CC(C)CCOP(=O)(c1ccc(N(C)C)cc1)C(O)c1ccccn1 (stereo not drawn),7.4%
14,Cc1ccc(-n2c(C)cc(/C=C3\C(=O)NC(=O)N(C)C3=O)c2C)cc1C,6.74%
15,Cc1ccc(S(=O)(=O)Cc2ccc(C(=O)NCc3cccs3)o2)cc1,3.53%
16,COCCCNc1nc2ccccc2nc1NS(=O)(=O)c1cc(Cl)ccc1Cl,12.5%
17,Cc1cccc(OCCCC(=O)Nc2ccc(S(N)(=O)=O)cc2)c1C,12.3%
18,Cn1sc(NC(=O)c2ccccc2)nc1=O,-4.07%
19,CCn1c(C(C)NC(=O)c2cccc(C)c2)n[nH]c1=S (stereo not drawn),-36.9%
20,O=C(COC(=O)c1ccc(S(=O)(=O)N2CCCC2)cc1)NCc1cccs1,-17.6%
21,COc1ccccc1NC(=O)/C(C#N)=C/c1c(C)nn(-c2ccc(F)cc2)c1Cl,8.75%
22,CCOC(=O)n1c(=O)n(Cc2ccccc2)c2ccccc21,6.17%

row,Structure (SMILES),"hERG current change (%, negative = inhibition) at 1uM"
1,CC1CCC(NS(=O)(=O)c2ccc3c(c2)n(C)c(=O)c(=O)n3C)CC1 (stereo not drawn),-24.4%
2,O=C(O)CSc1ncccn1,13.4%
3,O=C(NCc1ccncc1)C(=O)Nc1ccc2c(c1)OCO2,4.99%
4,O=C(NCCc1c[nH]c2ccccc12)C(=O)NCC1OCCN1S(=O)(=O)c1ccccc1 (stereo not drawn),11.8%
5,Cc1ccc(NC(=O)C2CCCN(S(=O)(=O)c3ccc4[nH]c(=O)ccc4c3)C2)cc1C (stereo not drawn),-0.277%
6,COc1ccc(CCNC(=O)CSc2nnc(CNC(=O)c3cc(OC)c(OC)c(OC)c3)o2)cc1OC,21.1%
7,N#CC1=C(N2CCCCC2)c2cc3c(n2C1=O)CCCC3,0.989%
8,O=C(c1cc(-c2ccccc2)on1)N1CCN(C(=O)c2ccco2)CC1,-8.13%
9,COc1ccc(C)cc1Nc1nc(-c2ccccc2O)nc2ccccc12,12.4%
10,CN(C)c1nc(Oc2ccc(C(=O)OCC(=O)Nc3ccccc3)cc2)nc(N(C)C)n1,3.61%
11,CC1=C(C(N)=O)C(c2ccccn2)n2nc(SCc3ccccc3Cl)nc2N1 (stereo not drawn),15.1%
12,CCCCCOc1ccc(C2C(C(=O)c3ccc(C)o3)=C(O)C(=O)N2c2cc(C)on2)cc1 (stereo not drawn),14.1%
13,COc1ccc(CN(C(=O)c2nsc(Cl)c2Cl)C(C(=O)NC2CCCCC2)c2ccc(OC)cc2)cc1 (stereo not drawn),1.89%
14,O=C(Cc1ccc(Cl)cc1)NCC(=O)N1CCN(c2ccccc2)CC1,1.77%
15,CCN(CC)c1ccc(CNc2ccc(Br)cn2)cc1,14.6%
16,CC1CCN(C(c2ccc(N(C)C)cc2)c2nnnn2C(C)(C)C)CC1 (stereo not drawn),7.16%
17,CC(C)Nc1nc(Oc2ccc(Cl)cc2)cc(C(F)(F)F)n1,0.609%
18,c1ccc(CCC2CCCCN2Cc2nc(-c3ccc4c(c3)OCO4)no2)nc1 (stereo not drawn),-0.47%
19,CC(C)Cn1c(N)c(C(=O)CSc2nncs2)c(=O)n(C)c1=O,3.51%
20,O=C(Nc1ccc(N2CCN(C(=O)c3ccc(Cl)cc3)CC2)cc1)c1cccs1,3.32%
21,Cc1ccsc1C(=O)C1CCCN(CCO)C1 (stereo not drawn),16.7%
22,Cc1ccc(CNC(=O)CCCNS(=O)(=O)c2cccc3nonc23)cc1,13.5%

row,Structure (SMILES),"hERG current change (%, negative = inhibition) at 1uM"
1,Cc1nn2c(-n3ccnc3)c3c(nc2c1-c1ccccc1)CCC3,-3.82%
2,COc1ccc(C2CC(c3ccc4ccccc4c3OC(C)=O)=NN2C(C)=O)cc1 (stereo not drawn),9.2%
3,COc1ccc(C(C(=O)NC2CCCC2)N(CCO)C(=O)Cn2nnc(-c3ccc(C)o3)n2)cc1OC (stereo not drawn),13.3%
4,COc1cccc(CC(NC(C)=O)C(=O)NC2CCN(c3c(Cc4ccccc4)c(C)nc4ncnn34)CC2)c1 (stereo not drawn),9.51%
5,O=C(Nc1ccc2c(c1)ncn2-c1ccccc1)c1ccco1,2.94%
6,CC(=O)c1ccc(S(=O)(=O)NCCc2cn3ccc(C)cc3n2)cc1,-3.96%
7,Nc1nccc(-c2ccc(-n3cnc4ccccc43)cc2)n1,2.67%
8,COc1ccc(OCC(=O)Nc2ccc3c(c2)nc(CCN2CCOCC2)n3C)cc1,1.26%
9,O=C(COc1ccccc1Cl)NCCCNC(=O)c1ccco1,10.8%
10,CCOc1ccc(C(C)=O)cc1Cn1nc(C(=O)O)c2ccccc2c1=O,7.4%
11,COc1ccc(-c2csc(NC(C)c3nc4cc(C(F)(F)F)ccc4n3CCOCCO)n2)cc1 (stereo not drawn),8.61%
12,Cc1ccccc1S(=O)(=O)c1cc(C#N)c(=O)[nH]c1N,12.7%
13,COc1cc(NC(=O)c2ccccc2F)c(OC)cc1NC(=O)CN1CCOCC1.Cl,1.06%
14,O=C(O)CCN1C(=O)c2ccncc2C1=O,-0.481%
15,O=C(NCc1ccc2c(c1)OCO2)C1CCCN(S(=O)(=O)c2cccc3nonc23)C1 (stereo not drawn),2.31%
16,CN(C)/C=N/NC(=O)c1ccccc1Cl,15.3%
17,O=C(CCc1nc(-c2ccccc2)no1)NC1CCCCCC1,7.67%
18,CC(OC(=O)CCC(=O)N1CCN(S(=O)(=O)c2ccc3ccccc3c2)CC1)C(=O)NC(N)=O (stereo not drawn),0.435%
19,CC(=O)c1cccc(NC(=S)NC(=O)c2ccc(C)cc2Cl)c1,10.9%
20,S=C(NCC(c1ccco1)N1CCCC1)Nc1ccccc1 (stereo not drawn),14%
21,CCCc1cc(C(=O)N2CCCC(C(=O)c3cc(C)c(OC)c(C)c3)C2)n(C)n1 (stereo not drawn),-5.97%
